Here are results for 44 sequences from the supplement of paper PMC11417369.

This is one part of the list.

This test concerns PfAP2-HC AP2 domain (GST-tagged). Kind of test: gcPBM binding intensity (ln(normalized median fluorescence intensity)); higher = stronger DNA binding. The method, boiled down:
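Binding intensity is defined as the maximum Masliner-normalised natural-log median intensity across replicate spots for either probe orientation. It was measured on an Agilent 4 × 180k array of primer-extended double-stranded 36-bp intergenic genomic probes and negative controls, to which GST-tagged P. falciparum DNA-binding domains made in E. coli were applied for 1 h in 1× PBS with 1% milk, 0.2 mg/ml BSA, 0.5% salmon testes DNA and 0.03% Triton X-100. Detection was by Alexa488 anti-GST antibody and scanning at 488 nm.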
Turning to “ACTATATTTCATAACAGTACATATTCCTGAAACATC [XGTACX_site4924]”, the “gcPBM binding intensity (ln)” value is 9.65.
The same measure for “ACAATATAAAAAAATTGTACATAATATATAATATTA [XGTACX_site1040]”: 9.68; for “CATGCTTATATGTGCACACACAAAAGAAAAGAAAAA [CACACA_site1655]”: 10.1; for “TGTTACATAAAATGCACACTTTCAAATATGCTAATA [CACACA_site2925]”: 9.57.
The same measure for “GAGATAAAATAAAACACACACATATATATATAGAAT [CACACA_site2197]”: 10.5.
The result for “AAAAAAATCTCCAGTGTGCACAATCACATAATATAT [GTGCAC_site9833]” reads 10.5; that for “TATAAGCTAAGTTGTTGTACAAAAAGGAAAAGTATA [XGTACX_site3741]”, 9.93; that for “AATATATGGTTTCATGATATTAAATTCAATTTAATG [GTGCAC_negctrl_site370]”, 9.31.
Consider “TTTTCTTTTAAGTTTGTTTTACACTTTTTATTTTGA [CACACA_negctrl_site1581]”, for which the “gcPBM binding intensity (ln)” value stood at 9.76.
The same measure for “TATACGTATTTTATATGTACACATATACATATTTAT [XGTACX_site5301]”: 10; for “AAATATAAATATACTCGTACATATATATATATATAT [XGTACX_site6940]”: 9.72; for “ATATATATATATAGTAGTACTCTCTCTGTATATATA [XGTACX_site3754]”: 9.97.
The result for “ATTTAGAAAAATAAAACACACATATATCTGTAAATA [CACACA_site6119]” reads 9.82; that for “TTCCTTTGTTGTCGTTGTACTTATATGGTTATAATT [XGTACX_site3082]”, 9.81; that for “TATACATAAAAAAATTTTACCAGGTTAATACAAATA [CACACA_negctrl_site1171]”, 9.58.
The result for “TACCTTATGTTATATACACACATATAACATAATATA [CACACA_site6741]” reads 9.72; that for “AAATGACTATATAAAAGTACTAGAAAGTATAAATAT [XGTACX_site944]”, 9.82; that for “CATCCGTTGATATATGCATGCATATTGTTATTACCA [TGCATGCA_site868]”, 9.86.
With “AAAATACACGATAGTTGTACATTAAATGTATACAAT [XGTACX_site360]”, the “gcPBM binding intensity (ln)” value stood at 9.88.
The same measure for “TCTAATACACAATGTTGTACATATTAATATATATGT [XGTACX_site2931]”: 9.73; for “ATCATTCTTAAACCGTGTACTTATTATTTTTTTTTT [XGTACX_site2798]”: 9.77; for “TATAAAGATATAAATGCACACGTATTAAAAAAAAAA [CACACA_site8223]”: 9.89.
The same measure for “GCATATATGGATATATAGGTATATATAAATGCAATA [GTGCAC_negctrl_site24]”: 9.76.
The result for “CCTCTCATTTTATATAGTACATATTTCAAAAAAAAA [XGTACX_site488]” reads 9.27; that for “AGGAGGATAGTTCACAGTACCCAGTAACTCTACGGA [XGTACX_site1997]”, 9.48.
Regarding “ATATAAAAAAAAAATTGTACAAAAATATATACATAT [XGTACX_site469]”, the “gcPBM binding intensity (ln)” value was determined as 9.71.
The same measure for “GCATATTTTCCCTGTGAATAAAGTTTTTTTTTTTAT [XGTACX_negctrl_site87]”: 9.69; for “AAGGTATAGAAACACACACACGTGAATATAGTTTAA [CACACA_site5109]”: 10.2; for “TTCTTAAATATATTCAACATACATAATATATAATCT [CACACA_negctrl_site1806]”: 9.51.
Consider “TATATATGTATATATTGTACTTTAAGACAAATATAT [XGTACX_site1052]”, for which the “gcPBM binding intensity (ln)” value was found to be 9.51.
For the sequence “CGTTATATAATAAAGGTGCATAGATATATCATTATA [GTGCAC_site9774]”, the “gcPBM binding intensity (ln)” value amounted to 9.56.
Turning to “TATATAACATATATATGTACACATAATATCAGATTT [XGTACX_site1041]”, the “gcPBM binding intensity (ln)” value worked out at 9.71.
The result for “TTCACTAATAAATACGCACACATATACATATATATA [CACACA_site1383]” reads 9.9; that for “TTTCAAATATATATAGCACACAAGGTATAATATAAA [CACACA_site877]”, 9.74; that for “TAATTTTTTTTAAACACACACATTACATTCAAAAAT [CACACA_site127]”, 10.1.
The same measure for “CTAATATAGGTATGCACACACAATATGTACATATTT [CACACA_site7558]”: 10.4.
As for “TTTTAATTAGTACAAACACACATATACACCCAAAAA [CACACA_site5422]”, the “gcPBM binding intensity (ln)” value came to 10.
The same measure for “ATATAAAAAAGGGAGGTAAATGAATGTGAAACCCAA [GTGCAC_negctrl_site359]”: 9.7; for “TAATTGTAGACATGCACACACAAATATTATATATGT [CACACA_site845]”: 10.2; for “TATTTTTTACATTCGTGTACGCATTTTTGTGAATTT [XGTACX_site5339]”: 9.79.
The same measure for “ACAAAAATATTTGTAAAAAGAAATATAAATAAATAA [TGCATGCA_negctrl_site357]”: 9.49; for “AAAAATAGAGCAGCTCTCATATTTTTATGTGCAATA [CACACA_negctrl_site837]”: 9.53; for “AGGATATATTATATGTACACACACATATAAGGGATT [GTGCAC_negctrl_site47]”: 10.2.
For “GCATTTATGAAAAATGTACACACATCAAATGCTTAT [CACACA_site9347]”, the “gcPBM binding intensity (ln)” value stood at 9.77.
